From PubChem BioAssay (NCI)
Where “and” joins values, the source holds several entries; their conditions need not be identical. Identical values can stand only once.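 Assay format: 96-well plates, 48-hour exposure. GI50 is the concentration that inhibits growth by half. TGI is the concentration that stops growth completely.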

Test system: NCI-H322M lung
Assay: growth of human tumour cells (NCI), 48 h

| SMILES | GI50 | TGI |
| --- | --- | --- |
| CC(=O)N1N=C(c2ccc(Nc3ccnc4cc(Cl)ccc34)cc2)CC1c1ccc(Cl)cc1 (stereo unspecified) | > 100 µM | > 100 µM |
| C=C1C(=O)O[C@H]2[C@H]1CC/C(COC(=O)CCSCCC(=O)OC/C1=C/CC[C@@]3(C)O[C@H]3[C@H]3OC(=O)C(=C)[C@@H]3CC1)=C\CC[C@@]1(C)O[C@@H]21 | 3.9 µM | 12.3 µM |
| C=CCc1cc(-c2cc(CC=C)c(O)c(CN(CC)CC)c2)cc(CN(CC)CC)c1O |  | > 100 µM |
| O=[N+]([O-])c1ccc(Oc2nc(Nc3ccc(O[C@H]4CO[C@H]5[C@@H]4OC[C@@H]5O)c(Cl)c3)ncc2F)c(Cl)c1 | 0.75 µM | 4.87 µM |
| CCN(Cc1ccc(F)cc1)c1ccc(CO)c(C)c1 | 15 µM | 47.2 µM |
| c1ccc(CN[C@]23C4C5CC6C7C5C2C7[C@@](NCc2ccccc2)(C64)N3Cc2ccccc2)cc1 (stereo partly specified) |  | > 100 µM |
| ON(Cc1ccccc1)C(=S)c1ccccc1 |  | > 77.8 µM |
| C=C1c2nc3ccccc3n2C=C(c2ccc(C)cc2)N1c1ccc(C)cc1 |  | > 100 µM |
| O=C(c1ccccc1)n1cc(-c2ccccc2)c2c(=O)[nH]cnc21 |  | > 100 µM |
| COc1ccc2c(C3(c4cn(C)c5cc(OC)ccc45)C(=O)Nc4ccc(Cl)cc43)cn(C)c2c1 | 2.56 µM | > 100 µM |
| CC1=C(/C=C/C(C)=C/C=C/C(C)=C/C=N/NC(=S)NC(=S)N/N=C/C=C(C)/C=C/C=C(C)/C=C/C2=C(C)CCCC2(C)C)C(C)(C)CCC1 | 6.5 µM and 5.83 µM | 14.6 µM and 13.3 µM |
| COc1cccc(/C=N/NC(=S)NC2CC3CCC2C3)c1O (stereo unspecified) | 15.6 µM | 42 µM |
| Cc1cccc(C(C)C)c1N1C(=O)C(=O)C(c2nc3ccccc3o2)C(=O)C1=O |  | > 100 µM |
| COc1ccc(C(c2ccc(OCCN(C)C)cc2)c2cc3ccccc3c3ccccc23)cc1 (stereo unspecified) | 1.6 µM | 2.98 µM |
| Brc1ccc2c3c1[C@H]1O[C@H]1c1cccc(c1-3)[C@@H]1O[C@H]21 |  | 30.1 µM |
| N#Cc1c(Br)n(C2OC(CO)C(O)C2O)c2ncnc(N)c12 (stereo unspecified) | 4.56 µM | > 45.1 µM |
| O=S(=O)(O)c1ccc(N=Nc2nc(C(F)(F)F)c(C(F)(F)F)[nH]2)cc1 |  | > 100 µM |
| NNc1nncc2[nH]cnc12 |  | > 100 µM |
| CN(C)C(=Nc1nc(=[N+](C)C)ss1)N(C)C |  | > 100 µM |
| COc1ccc2c(c1)CC[C@@H]1[C@@H]2CC[C@]2(C)[C@@H](NC(=O)/C=C/c3ccc(O)c(O)c3)CC[C@@H]12 | 7.46 µM | 19.8 µM |
| Cc1ccc(C(NC(=O)c2ccccc2)c2ccc3cccnc3c2O)cc1 (stereo unspecified) | 0.304 µM | 26.5 µM |
| O=[N+]([O-])c1ccc(Cl)c(C2CC(c3cccc4ccccc34)=Nc3ccccc3S2)c1 (stereo unspecified) |  | > 100 µM |
| COC1=C(C)C(=O)c2c(c(CCCl)c3n2CCC3O)C1=O (stereo unspecified) | 0.276 µM | 4.7 µM |
| CC(=O)c1ccccc1NCC(=O)Nn1cnc2ccc(S(=O)(=O)Nc3ccccc3C(C)=O)cc2c1=O |  | > 100 µM |

| SMILES | GI50 | TGI |
| --- | --- | --- |
| Brc1ccc2[nH]cc(-c3nc(-c4c[nH]c5ncccc45)cs3)c2c1 | 4.12 µM | 18.7 µM |
| O=c1sc2c(s1)-c1sc(=O)sc1SS2 |  | > 100 µM |
| COP(=O)(OC)C(NC(=O)C(F)(F)F)(c1ccccc1)C(F)(F)F (stereo unspecified) |  | > 100 µM |
| Cc1ccc(NC(=O)C(Cc2c[nH]c3ccccc23)NC(=O)Oc2ccccc2)cc1C (stereo unspecified) |  | 75.2 µM |
| C(/Cc1ccc2c(c1)OCO2)=N\NC1=NCCN1 |  | > 100 µM |
| Nc1c(O)cc(N=C2C(=O)C=CC=C2C(=O)O)c(O)c1C(=O)O |  | > 100 µM |
| Cc1c(CCO)c(=O)n2c([nH]c3ccccc32)c1C#N |  | > 100 µM |
| Cn1nc(-c2ccc(Cl)cc2)nc2c(=O)n(C)c(=O)nc1-2 | 0.914 µM | 2.69 µM |
| O=C1C2=C(c3ccccc31)C(c1ccccc1)N1C(=O)CSC1=N2 (stereo unspecified) |  | > 100 µM |
| CN(C)c1nnnn1-c1c(N)n(C)c(=O)n(C)c1=O |  | > 100 µM |
| Cc1nnc2c3nnc(C)n3c3ccccc3n12 |  | > 100 µM |
| C=C1C(=O)O[C@H]2[C@H]3O[C@@H](C[C@@H]12)[C@@]1(C)CC[C@H](O1)[C@H](C)CCC[C@H]3C |  | 13.3 µM |
| S=c1nc(COc2ccc(Cl)cc2Cl)[nH][nH]1 |  | > 100 µM |
| O=C(/C=C/c1ccco1)c1ccc(NCc2nc3ccccc3[nH]2)cc1 |  | 21.5 µM |
| O=[N+]([O-])c1ccccc1S(=O)(=O)c1ccccc1 |  | > 100 µM |
| O=[N+]([O-])c1ccc(C(Nc2ccccc2)P(c2ccccc2)c2ccccc2)cc1 (stereo unspecified) |  | > 100 µM |
| O=c1cc(-c2c[nH]c3ccccc23)[nH]c2cc3c(cc12)OCO3 |  | > 100 µM |
| COC(=O)C1OC2(CCCC3CC32)O[C@H]1C(=O)OC (stereo partly specified) |  | > 100 µM |
| S=C(Nc1ccc(N=Nc2ccccc2)cc1)SCc1ccccc1 |  | 26.9 µM |
| CCCCC(C)C(OC(=O)CC(CC(=O)O)C(=O)O)C(CC(C)CC(O)CCCCC(O)CC(O)C(C)N)OC(=O)CC(CC(=O)O)C(=O)O (stereo unspecified) |  | > 100 µM |
| O=C(O)C1CC2(C1)CC(C(=O)O)C2 (stereo unspecified) |  | > 100 µM |
| CCO[C@@]1(COCc2ccccc2)OC(=O)C[C@@H]1N1C(=O)OC[C@@H]1c1ccccc1 |  | > 100 µM |
| CCCCCc1nnc(NS(=O)(=O)c2ccc(NC(=O)OCC(C)C)cc2)s1 |  | > 100 µM |
